The results in this text go back to publication PMC12136788.

The other results are listed elsewhere or left out.

Sequences and labels used below:
B1: 123086542_123086662_582_3pUTR_ENSMUSG00000031822_ENSMUST00000034279|mouse|control|control (ssRNA)
RNA: GGGAGUUCUACAGUCCGACGAUCGGGAGUGCUGGGGACACUGUGACCCCCGGGGGGGACGAUGAUGGGGCCCAUGGGCACUCGUUUGGGCGUGCUAGCUGGAGAGCUAUGGUUGGUGGCUGGAGAGGACACUGGAGAUGACUCCAACAGAGGAUUGAGCAUCA
B2: chrX:70776531:70776532:+_ENSG00000147162_ENST00000373719|perfect_dup|FALSE|FALSE (ssRNA)
RNA: GGGAGUUCUACAGUCCGACGAUCCUGUUGCAGUACACUUGCUAAAUUGGAAUGUGCAGCAGCAAACUCUGGGAAGACUUCUAAUGCUUUGCGAUACAGGCGAACUGCCUCUUCAAUGUUGCCCUGUUCCCGUUUGAUGUUGGCCAACAGAGGAUUGAGCAUCA
B3: 171560771_171560891_3747_CDS_ENSG00000117523_ENST00000495585|human|control|control (ssRNA)
RNA: GGGAGUUCUACAGUCCGACGAUCCUUCUACUUUUUCCUGACAGACCCCAGGAGGGUCGGUCAGUGUUUCAGGAGGUUUACUUGAAUCACUGUCCACUUUCUGGGCUUUGCCUCCUCCUAUCUGUUUGCUCUGUUGCUGUUCAGCAACAGAGGAUUGAGCAUCA
B4: chr18:58099821:58099822:+_ENSMUSG00000024597_ENSMUST00000115366|mus_hu|motif|central (ssRNA)
RNA: GGGAGUUCUACAGUCCGACGAUCAUUUUCUUUCUUUGGUUUGGUAUUGAUAUCUCCUAGAACCAUGAUAUCAGAAAAGUCGGUCCGGAACUUGCUAAGCAAAGUAGCCAUCGCUCUCCGGUCAUGGUCUAUUCUGUUUAUCUUCAACAGAGGAUUGAGCAUCA
B5: chr18:24791317:24791318:+_ENSMUSG00000024271_ENSMUST00000025120|mus_hu|FALSE|FALSE (ssRNA)
RNA: GGGAGUUCUACAGUCCGACGAUCACUCCCAGUGAAGAAAUACUUGCUGUCAGGACUCCAAUCACAAGACCAAAUAAUUCUACUGUGCACAGAAGUAAUUUUGUUGGUGAAGGCAAAAAGACUAAAAACUGGCUCGAACUCAGGCAACAGAGGAUUGAGCAUCA
B6: chr2:155479361:155479362:-_ENSMUSG00000038324_ENSMUST00000041059|mus_mus|FALSE|FALSE (ssRNA)
RNA: GGGAGUUCUACAGUCCGACGAUCCCACUCCUCCAGUUCUUGAAGGAAGCUGGCUGUGCCCGUUGACUCUGACACUUUCCUAGUUGCCAGUUUGCAAAGCCGUUCCACAAAGCCAGGGAUGCUGAGAAGAGCAGCUUGGUUGAUCAACAGAGGAUUGAGCAUCA
B7: chr7:75932113:75932114:+_ENSG00000106211_ENST00000248553|hu_hu|hu_hu_hu_mus_False|18_78 (ssRNA)
RNA: GGGAGUUCUACAGUCCGACGAUCCUGCGACCACUCAUCGGGCAACCGGGGCACCCCGAAGGCCUGGUCGAAGAGGCGGCUGUGUGCAGGGUACCAGUCCCGGAAUGGUUCCCAGCUGCCCCGCAGGAGCAGCGAGAAGGGCACCAACAGAGGAUUGAGCAUCA
B8: chr16:16313726:16313727:-_ENSMUSG00000022789_ENSMUST00000023477|mus_mus|FALSE|FALSE (ssRNA)
RNA: GGGAGUUCUACAGUCCGACGAUCAUACAUUGAUUAUGUGAGGAACUUGCCAGGCUCCAUCUUUUAAAGCCAGGUCAGUCUAUAUAAAUAGUGCAUGCAUUAUAGUCAUGAAAUGUCCUGGAGCUUCCUUUCUGAGGACUACAGCAACAGAGGAUUGAGCAUCA
B9: chr11:105962086:105962087:+_ENSG00000149313_ENST00000278618|hu_hu|motif|central (ssRNA)
RNA: GGGAGUUCUACAGUCCGACGAUCGCCUAUAUCCAAGUUUAAUGGAGAUAGAUCAAAUUCAAGCCGCUGCAAUUCAAAUCCGGGUCCAACACCAAUGGCUUUUAUGAAGCUUUCCUUAAGUGCCCAAUUCCUAUAAAACAUAUCCAACAGAGGAUUGAGCAUCA
B10: chr9:37780812:37780813:-_ENSG00000107371_ENST00000396521|hu_mus|FALSE|FALSE (ssRNA)
RNA: GGGAGUUCUACAGUCCGACGAUCUAACGUCUGCUGAAUGGUCUUAGCUUUGACCCAUAUUCUUCCAUUCAUUCCAAACACAAUCUCCAAUGGAUAGAGUUUUCCCAGCUCUUGCACAAUUUCACAAUCUGGAGCUAAUAGCUUCAACAGAGGAUUGAGCAUCA
B11: chr7:149068622:149068623:-_ENSMUSG00000025139_ENSMUST00000001950|mus_hu|mus_mus_mus_hu_False|88_98 (ssRNA)
RNA: GGGAGUUCUACAGUCCGACGAUCGUGAGGCCUCUGAGUGAGGUUCCUGCUCUGCAGUGGGUUAGAGUUGUUAAUAUCACGGAACAUACCAUCUAGAACGUUCCAGUCCCGCCUGACACCUUCAUUCCCAAUGGAGAAGAAAUCCAACAGAGGAUUGAGCAUCA
B12: chr8:38205342:38205343:-_ENSG00000147548_ENST00000316985|hu_hu|FALSE|FALSE (ssRNA)
RNA: GGGAGUUCUACAGUCCGACGAUCCAGAAUUUCAUGUGGUCUUGUGUUUGGAAUUUCUGAAUGAUAAUAGUCAGUGGGGCUAAAGUUUCUAACUGCACCAAAGCCAUUGGCUGACCCAUUAGGAUACUGAUUAUAUGACUGGUACAACAGAGGAUUGAGCAUCA
B13: chr21:38595834:38595835:-_ENSG00000157538_ENST00000309117|hu_mus|FALSE|FALSE (ssRNA)
RNA: GGGAGUUCUACAGUCCGACGAUCAUCAAAGAUGACUUUUCCUUAGACUCACUAGAAAGUACGGCCCACAUUUUUUGGGUACUAGAUUGUUUAAAUAUAACAAGGAUAAGUAUGACAAAGCAAAAGUACAUUCUCUGGGAACUCCAACAGAGGAUUGAGCAUCA
B14: chr4:99339852:99339853:+_ENSG00000138698_ENST00000453712|hu_hu|motif|central (ssRNA)
RNA: GGGAGUUCUACAGUCCGACGAUCUGCAUGCUGUACUGUUACAUUUCCAUCUUCUACAUGUCUGUCCAGUAAAUCCAUAAGUUUUUCGGCAAUCCCAUUGUCUACCAUAUGAAUACAAUUUGCAUCAUUUCUGGCAAAAUUUGCCAACAGAGGAUUGAGCAUCA

The experiment has as its target T1, UNK ZnF1-3 (human, UniProt Q9C0B0 31-174).
T1 sequence: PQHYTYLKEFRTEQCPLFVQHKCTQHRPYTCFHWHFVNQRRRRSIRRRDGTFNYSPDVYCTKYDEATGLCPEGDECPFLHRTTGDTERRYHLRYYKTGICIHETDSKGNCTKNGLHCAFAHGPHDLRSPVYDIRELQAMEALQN
The experiment is described as follows: nsRBNS (natural sequence RNA bind-n-seq); RBNS binding buffer (assumed for nsRBNS): 25 mM Tris pH 7.5, 150 mM KCl, 3 mM MgCl2, 0.01% Triton X-100, 500 ug/ml BSA, 20 U/ml SUPERase-In, 4 C; UNK is unkempt and MSI1 is Musashi-1; names of the RNAs are library labels; protein concentration not given here; high values mean tight binding.
Take B1: the binding signal was found to be 1.29 enrichment R.
With B2, the binding signal stood at 1.06 enrichment R.
The molecule B3 had a binding signal of 0.41 enrichment R.
Regarding B4, the binding signal turned out to be 0.262 enrichment R.
For B5 the value was 2.14 enrichment R; for B6, 0.777 enrichment R; for B7, 0.724 enrichment R.
For B8 the value was 0.796 enrichment R; for B9, 1.44 enrichment R.
For B10, the binding signal came out at 0.651 enrichment R.
In turn, B11 had a binding signal of 0.525 enrichment R.
B12 gave a binding signal of 1.38 enrichment R.
B13 had a binding signal of 1.24 enrichment R.
Molecule B14 showed a binding signal of 0.695 enrichment R.
